Experimental data reported in PMC7819943, “Rice protein-binding microarrays: a tool to detect cis-acting elements near promoter regions in rice”.
The list shows a part of the results.

molecular target: T1, OsWOX13 (Oryza sativa, UniProt Q5QMM3 1-267); assay: protein-binding microarray (RPBM); PBS, 2% BSA, 51.3 ng/ul salmon testes DNA, 50 uM zinc acetate, 200 nM TF, 25 C, 1 h; high values mean tight binding; conditions: protein: recombinant; tags: N-terminal polyhistidine and DsRed monomer fusion (pET32a); label: CyDye5-dUTP incorporated in the synthesized complementary strand; 3' TTTTT single-stranded linker to array surface; dsDNA, one strand shown
T1 sequence: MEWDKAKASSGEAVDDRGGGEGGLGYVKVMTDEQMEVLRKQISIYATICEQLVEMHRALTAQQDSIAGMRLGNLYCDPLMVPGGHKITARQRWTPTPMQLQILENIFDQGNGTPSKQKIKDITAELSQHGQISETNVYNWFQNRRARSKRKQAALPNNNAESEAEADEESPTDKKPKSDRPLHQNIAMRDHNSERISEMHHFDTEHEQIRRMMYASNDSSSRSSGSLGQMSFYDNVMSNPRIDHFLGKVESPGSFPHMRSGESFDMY
In short: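 The binding signal for each feature is its fluorescence intensity in arbitrary units. An Axon 4000B scanner was used to read a custom Agilent array that had been made double-stranded with Cy5-dUTP primer extension, blocked with 2% BSA, incubated at 25 °C for 1 h with 200 nM protein in PBS, 2% BSA, salmon testes DNA and 50 µM zinc acetate, and washed. The protein was an N-terminal polyhistidine–DsRed transcription factor fusion from E. coli BL21-CodonPlus, purified on Ni–NTA.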

Sequence	binding signal
GTGGAATAAATTAGCTGGATTTTGCAATGTGATCCCCATCCGGAGTCACCTAGTGCAG	10900 fluorescence intensity (a.u.)
CGTAAACTGGTACATATCGCCTGATGTACTGTGCAAGTTGCGGAGTCACCTAGTGCAG	20900 fluorescence intensity (a.u.)
TACAGATTGCAACAGTATTCATCTATAAATGTTCCATCACCGGAGTCACCTAGTGCAG	4670 fluorescence intensity (a.u.)
GAGATGATTGTTTCCAAATGAATGATGATTTAAGTGTATTCGGAGTCACCTAGTGCAG	52000 fluorescence intensity (a.u.)
AAACTGATTGTATGCAGGTGGTTTCAACGATGATGGATGGCGGAGTCACCTAGTGCAG	31600 fluorescence intensity (a.u.)
TCCTAAATGACGTGACAGGGCGTGCATACGCAGGAGTTGACGGAGTCACCTAGTGCAG	5380 fluorescence intensity (a.u.)
ACGGATGTTGTGATTAATTGAAAAGTAGATGTAGGTGGAACGGAGTCACCTAGTGCAG	27400 fluorescence intensity (a.u.)
AAGGGGCGGACTGATTTGTAATGAAACAACTATTCCTTCCCGGAGTCACCTAGTGCAG	6800 fluorescence intensity (a.u.)
GCTTAACTGAATCAACATGTATTTTAAAGTGTCAGCGTTACGGAGTCACCTAGTGCAG	16600 fluorescence intensity (a.u.)
TCTAATAATCTAGGAAATAAACAACTAACCGTTTATTATACGGAGTCACCTAGTGCAG	3470 fluorescence intensity (a.u.)
AAACTTTAATTTATCAACCATAAAAGAAACAATTAGAAGGCGGAGTCACCTAGTGCAG	6940 fluorescence intensity (a.u.)
AAGAAAATACTAATTAATCATGCACCAAACTCCATATCAACGGAGTCACCTAGTGCAG	7140 fluorescence intensity (a.u.)
GTGATTGAAATGGATCCTGGTCGGAAATGAATCCTGGTCGCGGAGTCACCTAGTGCAG	43700 fluorescence intensity (a.u.)
AATCGATGAAATTAAATCAATGTTTAATTTCATTACTTATCGGAGTCACCTAGTGCAG	8710 fluorescence intensity (a.u.)
CAGTAATGAATTGCATCACCCAGTTACCCCATGAGACCGACGGAGTCACCTAGTGCAG	4370 fluorescence intensity (a.u.)
CACGATTGACCGTTACCTATAGTCCACACACATATAGGTACGGAGTCACCTAGTGCAG	13500 fluorescence intensity (a.u.)
TAACTCATTATTATAATTACTATTATTCTACTCTGATGAACGGAGTCACCTAGTGCAG	3740 fluorescence intensity (a.u.)
TATAATTAAATGAGGTGAGAAGTATGGATGCTAGTGTACACGGAGTCACCTAGTGCAG	11000 fluorescence intensity (a.u.)
CATATGATGATTTGCTCAACGGTTACGCCAGAACGCACCTCGGAGTCACCTAGTGCAG	11800 fluorescence intensity (a.u.)
GCATAATTATTCTATGATTACTTTGATGCGTACGTGAATGCGGAGTCACCTAGTGCAG	44800 fluorescence intensity (a.u.)
ATTCAGATTGGCTGGTATTTGCGCGTACAATATATTATAACGGAGTCACCTAGTGCAG	6620 fluorescence intensity (a.u.)

Sequence	binding signal
TTAATTGCTTTTAATTAATCGCAGTAGTTCATCTCGAAAACGGAGTCACCTAGTGCAG	39600 fluorescence intensity (a.u.)
TTGTTGTGAATTAACTGTTAGAACCAAAATGATTATATTGCGGAGTCACCTAGTGCAG	4080 fluorescence intensity (a.u.)
GTTAAGTGGTACGAATTTGATTGCACTTGTAATGAACTTACGGAGTCACCTAGTGCAG	4670 fluorescence intensity (a.u.)
ACATTTAATGTGATGGAATTTTGAAGGGAACTAAACACTGCGGAGTCACCTAGTGCAG	9580 fluorescence intensity (a.u.)
TAACCTTAATTAATTGATTAAATTACAAATATTCTAGCCCCGGAGTCACCTAGTGCAG	44000 fluorescence intensity (a.u.)
TGATTTGATTGGTTGATCCCTTCGAAAGTCAATTTGCATTCGGAGTCACCTAGTGCAG	50000 fluorescence intensity (a.u.)
AAATCCTAATTAAATCTCATCAAAACTACTGTAAATTCGGCGGAGTCACCTAGTGCAG	5200 fluorescence intensity (a.u.)
CAAATTAATTTACTTTTCAACTATCTAAATTAATACTCAACGGAGTCACCTAGTGCAG	38300 fluorescence intensity (a.u.)
TCTGTAACATGTAGGTTCTAATTGATGCTTAGAAAATGTGCGGAGTCACCTAGTGCAG	6700 fluorescence intensity (a.u.)
CTTAACAACTGAACTGATTGAGACAGTAGATGAAATGGAACGGAGTCACCTAGTGCAG	21400 fluorescence intensity (a.u.)
TGGCATTTATACTAATTTGACCGAGGGACCACATATCAGTCGGAGTCACCTAGTGCAG	4830 fluorescence intensity (a.u.)
CTCCCTAATTTTAGAAACTAAACACAACAATTCTTATATCCGGAGTCACCTAGTGCAG	7510 fluorescence intensity (a.u.)
CAACCAAATTTCCAATTTTGGCGTGAACTAAACATAGCCTCGGAGTCACCTAGTGCAG	4170 fluorescence intensity (a.u.)
ATACACCAGTTGATTATAATGACAGTGATATTATGGTGGACGGAGTCACCTAGTGCAG	17800 fluorescence intensity (a.u.)
TTACGTTCCTTGATTCAATCACCATAATTCGTCCTACTTTCGGAGTCACCTAGTGCAG	12100 fluorescence intensity (a.u.)
TTCCTAAATATACAAATTTTCAAATTTTCCGTCGTGTCGTCGGAGTCACCTAGTGCAG	3680 fluorescence intensity (a.u.)
TACATCGCGTAATCAATTGAATGTTTTCTTTTATGGAGATCGGAGTCACCTAGTGCAG	6280 fluorescence intensity (a.u.)
TGGCAATCACAGGATTAATGCTCATTATATTTGGGAATACCGGAGTCACCTAGTGCAG	26000 fluorescence intensity (a.u.)
ATCTCATAAATTTGTCATCCTTAAGAGCTTGGAACAGTTACGGAGTCACCTAGTGCAG	3610 fluorescence intensity (a.u.)
CACTACCCTGATCTGATTGAAATGTCGGGTTCAACCCGATCGGAGTCACCTAGTGCAG	22100 fluorescence intensity (a.u.)
ACTTGATTATTGAAGGAGGTAGTACTGCCTGCTGACTACTCGGAGTCACCTAGTGCAG	33700 fluorescence intensity (a.u.)

Sequence	binding signal
TAATTGTACAGATTGCGACTAATTTGCGAGACAAATCTTTCGGAGTCACCTAGTGCAG	10900 fluorescence intensity (a.u.)
GGTCTTAATTAATTACTAACTAATATATGTTGCCTCTCCTCGGAGTCACCTAGTGCAG	42800 fluorescence intensity (a.u.)
ACAAAATTGTAAAGTATTAACGAAGGCTAACCGGACGGTGCGGAGTCACCTAGTGCAG	3360 fluorescence intensity (a.u.)
ATGGACAGATTGAAACATTAAGGATTAAATTGAGTCTCAGCGGAGTCACCTAGTGCAG	32800 fluorescence intensity (a.u.)
CTGCTGATGGATGCGTATAATAAGGATGTAAGTGGCTAACCGGAGTCACCTAGTGCAG	8300 fluorescence intensity (a.u.)
ATATATTGACAAGGCAATGACATAGATAGCTAGACATATCCGGAGTCACCTAGTGCAG	16200 fluorescence intensity (a.u.)
TCTGTTGATTGGTCCATCATATTTTATGGAATGTGCCAATCGGAGTCACCTAGTGCAG	49400 fluorescence intensity (a.u.)
TTTTCGTGAATTTGATGATTACGATTTTACGAATGCTGACCGGAGTCACCTAGTGCAG	8750 fluorescence intensity (a.u.)
TTTCAGATTGGAAATCTCGTGCTTGTTGTTAAAACACCTGCGGAGTCACCTAGTGCAG	22000 fluorescence intensity (a.u.)
TTTGAATGTGATATGATGTGATGAAAAGTTAAAAGTTTGGCGGAGTCACCTAGTGCAG	3430 fluorescence intensity (a.u.)
TTTGATGAACAAACAGAGATATCACATTGTACTATGGAATCGGAGTCACCTAGTGCAG	5530 fluorescence intensity (a.u.)
GGTCATCGTAATCAGTTTATTTGCTCGGAGACAAATCACACGGAGTCACCTAGTGCAG	5440 fluorescence intensity (a.u.)
ATATATATATATATATATATATATAAGGCTTGTCTTCTGCCGGAGTCACCTAGTGCAG	22100 fluorescence intensity (a.u.)
CCTAATTTGGAACCTTAACCGTGGGATTTGACTAAAATAACGGAGTCACCTAGTGCAG	8390 fluorescence intensity (a.u.)
AATATTTATGTTAATTATATATAGCTAATTATGATAATAGCGGAGTCACCTAGTGCAG	18800 fluorescence intensity (a.u.)
AATCCAATTCCCACAATTAAGTGTTCTTAACTCACAAACTCGGAGTCACCTAGTGCAG	4040 fluorescence intensity (a.u.)
TCCCTGCATTAACTGATCAACACAACCGAGATGTTTGACACGGAGTCACCTAGTGCAG	3510 fluorescence intensity (a.u.)
GATTGATTTTCTGATGTTTCCCCATGAGTCCATGACATGACGGAGTCACCTAGTGCAG	8870 fluorescence intensity (a.u.)
AAAAGGGTTTGATTTCTATCAATTCCTTTAAAATCTATGGCGGAGTCACCTAGTGCAG	3320 fluorescence intensity (a.u.)
CAATCACATTAAATTACGAAAATTAATTCTCTGACCTGAGCGGAGTCACCTAGTGCAG	17100 fluorescence intensity (a.u.)
CCAATTTATGATCCAATCACACTGTTGTATTCATTATAATCGGAGTCACCTAGTGCAG	10700 fluorescence intensity (a.u.)

Sequence	binding signal
TGCAGGTAAACAAATGATTGATATTATTCGATCTCTACTTCGGAGTCACCTAGTGCAG	32000 fluorescence intensity (a.u.)
GGGTGATTTGAAGGACACTTTCCTGTTTAAGAAGTTAACACGGAGTCACCTAGTGCAG	26700 fluorescence intensity (a.u.)
GATATTATACCAATTAATTATTGGACTTCTGGAGGTAAAACGGAGTCACCTAGTGCAG	11800 fluorescence intensity (a.u.)
TCAGTAATATAGTAATTACCGTATTTCTAAATATATTATTCGGAGTCACCTAGTGCAG	4630 fluorescence intensity (a.u.)
CTAACAAGTACACCTTGATTGAAGTGGATTTTATTATTACCGGAGTCACCTAGTGCAG	9250 fluorescence intensity (a.u.)
TGAGACGAATGGAGTAATTATGTTTCTTCACTAATTAAGCCGGAGTCACCTAGTGCAG	5150 fluorescence intensity (a.u.)
CGAAAGCAGTTAACTTAACTTTACCCCGTTCCCCTGCATTCGGAGTCACCTAGTGCAG	3200 fluorescence intensity (a.u.)
AATCAACTTTAAATTTAACTTTGACAATTTAAATTCTGTACGGAGTCACCTAGTGCAG	12500 fluorescence intensity (a.u.)
TGCTTCTCTTTCGGTGATTGGGTACTACGGGAAGGCGATCCGGAGTCACCTAGTGCAG	7610 fluorescence intensity (a.u.)
CTTATTAACTCAGAGTCAATTTCTTCGATTGAACATATTGCGGAGTCACCTAGTGCAG	6190 fluorescence intensity (a.u.)
TATGTCACATTCTAAATTGATAGGAGGGTTTGACCATATACGGAGTCACCTAGTGCAG	11300 fluorescence intensity (a.u.)
GGTGAATCTACAATGAGATAATTACTACAAATAGACACTGCGGAGTCACCTAGTGCAG	5140 fluorescence intensity (a.u.)
TTGATTGCGAATGATTGGAGCTGGTTGCTGTTGCTAGATCCGGAGTCACCTAGTGCAG	57800 fluorescence intensity (a.u.)
AACCAGTAACTTTGGTTAAATTTATAGATTAATTTAGCAACGGAGTCACCTAGTGCAG	4560 fluorescence intensity (a.u.)
CATAGACGGATTGATGCAAGAAAACCGTTGGGGCTAAAGCCGGAGTCACCTAGTGCAG	9430 fluorescence intensity (a.u.)
TAACTCTTTGATTATAATGATGATTATAATGATTATCTTGCGGAGTCACCTAGTGCAG	40200 fluorescence intensity (a.u.)
CAGCCTACCTATCTCCTTAATTATAACGGGAGGGAAACCCCGGAGTCACCTAGTGCAG	3180 fluorescence intensity (a.u.)
TTCCACTCAGATCACGGCCGTTGATTTACTTTCGACGGTCCGGAGTCACCTAGTGCAG	3170 fluorescence intensity (a.u.)
TAAAATTTACTTTACTAATAATTACCATGATACCATCTTTCGGAGTCACCTAGTGCAG	8320 fluorescence intensity (a.u.)
TCACTTGATTAGGGTAGCCGCATCTCTTAGAAAGATAAATCGGAGTCACCTAGTGCAG	22600 fluorescence intensity (a.u.)
ATGATTGATGGTACGAATGATGGCGGCAGTAGTTTCTCTCCGGAGTCACCTAGTGCAG	50100 fluorescence intensity (a.u.)
